Measured values reported in PubChem BioAssay AID504845 (National Center for Advancing Translational Sciences (NCATS), 2011).
Screen size: about 390,000 compounds; about 150 (0.038%) were called active. The inconclusive results got no clear call from the source; some entries with a clear call stand among them for comparison. The call rests on the fitted dose curve; in most records, active means well fitted inhibition curve with a large enough effect; inconclusive means small, poorly fitted or top-dose-only effect; inactive means no such curve, though single readings can be large or run the other way. A potency beside an inconclusive call is a rough fit, not a confirmed value.

What follows are molecules tested against Regulator of G-protein signaling 4 (Homo sapiens) (UniProt P49798) (assay: Inhibitors of Regulator of G Protein Signaling (RGS) 4: qHTS). Conditions: Transcreener GDP fluorescence polarization, RGS4-accelerated GTP hydrolysis; series mostly up to 114 µM.
Sequence of UniProt P49798 (P49798 whole entry, looked up): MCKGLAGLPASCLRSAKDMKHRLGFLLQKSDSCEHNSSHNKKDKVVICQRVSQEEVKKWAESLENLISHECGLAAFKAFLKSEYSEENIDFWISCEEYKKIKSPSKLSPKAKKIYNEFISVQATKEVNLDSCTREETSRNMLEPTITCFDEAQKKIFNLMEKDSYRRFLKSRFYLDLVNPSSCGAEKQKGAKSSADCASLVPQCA
Outline: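 MLSMR compounds (23 nl, pin-transferred) preincubated 10 min at room temperature with a 500nM (2x) first reagent, then RGS4 at 900nM (2x) plus Transcreener GDP mix added; fluorescence polarization (620/688 nm) read before and after 90 min at 30 °C.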
Further: nearly all actives have a fitted effect of over 75% in size.
Potency means the concentration at half of the fitted maximal effect; tags describe the fitted curve by direction and shape.

Structure (SMILES) | Potency
Cc1ccc(CC(=O)NNC(=O)c2ccncc2)cc1C | inconclusive: 31.6 µM [inhibitor, partial curve, poor fit]
O=C(C1CCN(CCCc2ccccc2)CC1)N1CCCCC1 | inconclusive: 89.1 µM [inhibitor, single point]
CCN1CCCC(CO)(Cc2ccccc2)C1 (centres undefined) | inconclusive: 89.1 µM [inhibitor, single point]
Cc1ccc(NC2=CC(=O)C(=O)c3ccccc32)c(C)c1 | inactive
CCSc1ccc(-c2ccco2)nn1 | inactive
COCCCNC(=O)/C(C#N)=C/c1cccc(NC(=O)c2ccccc2Cl)c1 | inactive
C=C1CC(COc2cc(=O)oc3ccccc23)(c2ccccc2)OC1=O (centres undefined) | inconclusive: 100 µM [inhibitor, single point]
CC(CN1CCN(C)CC1)OC(=O)c1ccccc1Cl (centres undefined) | inconclusive: 70.8 µM [inhibitor, partial curve, poor fit]
O=S(=O)(c1ccc(Cl)cc1)N1CCN(c2nc(-c3ccc(F)cc3)nc3cc(Cl)ccc23)CC1 | inactive
O=C1[C@H]2CC3C=CC2(O3)[C@@H]2OCCCN12 (some centres undefined) | inconclusive: 89.1 µM [inhibitor, single point]
COc1ccc(C(=O)c2ncc(C(F)(F)F)cc2Cl)cc1 | inconclusive: 44.7 µM [inhibitor, partial curve, poor fit]
N#Cc1c(NCCCO)nc(-c2ccccc2)c2c1CCCC2 | inconclusive: 89.1 µM [inhibitor, single point]
CCN(CC)CCCNC(=O)CSc1nc2nc(C)c(Cc3ccccc3C)c(C)n2n1 | inactive
O=C(O)Cn1nc(-c2ccccc2)cc1-c1ccccc1 | inconclusive: 79.4 µM [inhibitor, partial curve, poor fit]
O=c1c2ccccc2sc2c(CO)ccc(NCCN3CCCCC3)c12 | inconclusive: 79.4 µM [inhibitor, partial curve, poor fit]
C=CC[C@H](CC(=O)N(CCO)Cc1ccccc1)C(=O)N[C@@H](COC(=O)[C@@H](CC=C)Cc1ccc(F)cc1)Cc1c[nH]c2ccccc12 | inactive
O=C(Nc1cc(S(=O)(=O)N2CCOCC2)ccc1O)c1ccc2c(c1)S(=O)(=O)c1ccccc1C2=O | inconclusive: 100 µM [inhibitor, partial curve, poor fit]
O=C(COC(=O)c1ccccc1Br)Nc1cc(S(=O)(=O)N2CCOCC2)ccc1N1CCCC1 | inconclusive: 70.8 µM [inhibitor, partial curve, poor fit]
CC(=O)CCc1oc2ccc(C)cc2c1-c1ccc(C)o1 | inconclusive: 10 µM [inhibitor, full curve, poor fit]
